# PMC6919601, “Identification of Plasmodium dipeptidyl aminopeptidase allosteric inhibitors by high throughput screening” (PLoS ONE, 2019)
# The campaign covered roughly 110,000 compounds. About 230 (0.21%) showed an effect of 50% or more. The list shows a part of the results.
# Target: DPAP1 (Plasmodium falciparum, UniProt Q8IIJ9)
# Experiment: primary screen, percent inhibition; read by cleavage of a fluorogenic dipeptide substrate; higher = more effect of the substance
# Set-up: species or system P. falciparum D10 trophozoite lysates; single well
# 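Also: 30 min substrate incubation versus DMSO and 10 µM JCP410 controls.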
# DPAP1, sequence (Q8IIJ9 whole entry, looked up): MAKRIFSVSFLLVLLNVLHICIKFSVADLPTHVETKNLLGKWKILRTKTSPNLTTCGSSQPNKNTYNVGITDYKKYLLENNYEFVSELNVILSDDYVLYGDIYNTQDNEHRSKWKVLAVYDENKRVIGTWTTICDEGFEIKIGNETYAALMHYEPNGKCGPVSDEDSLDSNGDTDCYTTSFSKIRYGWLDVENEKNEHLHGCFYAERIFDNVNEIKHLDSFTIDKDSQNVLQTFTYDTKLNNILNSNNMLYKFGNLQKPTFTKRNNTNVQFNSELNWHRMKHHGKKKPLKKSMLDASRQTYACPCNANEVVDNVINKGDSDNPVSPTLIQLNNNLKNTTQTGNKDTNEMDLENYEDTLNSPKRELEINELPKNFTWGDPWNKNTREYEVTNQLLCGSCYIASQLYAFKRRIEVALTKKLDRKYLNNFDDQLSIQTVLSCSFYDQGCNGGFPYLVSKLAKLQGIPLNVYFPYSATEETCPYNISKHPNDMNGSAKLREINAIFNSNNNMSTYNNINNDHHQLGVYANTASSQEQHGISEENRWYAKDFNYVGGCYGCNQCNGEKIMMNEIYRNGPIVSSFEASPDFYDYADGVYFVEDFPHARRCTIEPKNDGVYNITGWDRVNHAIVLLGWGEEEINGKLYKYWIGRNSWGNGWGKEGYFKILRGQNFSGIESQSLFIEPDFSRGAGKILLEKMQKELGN
row,Structure (SMILES),% Inhibition @ 10 uM [%]
1,CC(C)S(=O)(=O)C1=NSC2=NC(=O)/C(=C\c3ccc(SCc4ccco4)o3)C(=N)N21,3.77
2,Cc1ccnc(SCC(=O)N2N=CCC2c2ccccc2)n1 (stereo not shown),-0.958
3,Cc1ccc(OCCn2cnc3ccccc32)cc1,-1.37
4,Cc1cc(C)cc(NC(=O)CN(Cc2ccccc2)S(C)(=O)=O)c1,-3.34
5,COc1cc(-c2cc(C(F)(F)F)n3ncc(C(=O)NCc4ccco4)c3n2)cc(OC)c1OC,-3.92
6,Cc1ccc(C2=NS(=O)(=O)N(C)C(C(=O)Nc3cc(C)nn3-c3ccccc3)=C2)cc1,-4.68
7,O=C(CCC1CCCC1)Nc1cccc2cccnc12,4.44
8,O=C(O)CCCNc1ccc(S(=O)(=O)Nc2ccccc2)cc1,-4.02
9,Cn1c(C(=O)N2CCCC(C(=O)NCCc3ccc(S(N)(=O)=O)cc3)C2)cc2sccc21 (stereo not shown),-2.84
10,COCCNc1nc2ccccc2c2nc(-c3cccnc3)nn12,-4.21
11,CCOC(=O)c1c(NC(N)=O)sc2c1CCCCC2,14.1
12,Cc1nc2nc(C)c(CCC(=O)NCc3ccco3)c(C)n2n1,1.26
13,CCN1C=C(C(=O)OC)C(c2ccccc2Cl)C(C(=O)OC)=C1,0.238
14,COc1cc(C(=O)N(C)C2CCCCC2)cc(OC)c1OC,1.35
15,O=C1C2C3C=CC(C4CC34)C2C(=O)N1CCO (stereo not shown),-1.96
16,Cn1c(=O)c2c(-c3ccccc3Cl)n(CCO)cc2n(C)c1=O,2.02
17,CN(C)CCNC(=O)CCCNC(=O)Cn1cnc2sc3c(c2c1=O)CCCC3,-2.51
18,O=S(=O)(c1ccc(-c2cc(C(F)(F)F)no2)s1)N1CCOCC1,1.56
19,CCOc1cc(C2C3=C(O)CC(C)(C)CC3=NC3=C2C(=O)CC(C)(C)C3)cc(Br)c1O (stereo not shown),1.82
20,O=C(c1cccnc1)N(C1CCCCC1)C1CCCCC1,1.28
21,O=C(CCNc1c(N2CCCC2)c(=O)c1=O)NCCc1ccccc1,-1.72
22,CCOC(=O)C1=C(CNCCc2cc(OC)c(OC)c(OC)c2)NC(=O)NC1c1ccccc1 (stereo not shown),-3.1
23,Cc1cccc(COc2ncnc3[nH]cnc23)c1,-4.97
24,CCCCCOC(=O)c1ccc2c(c1)C(=O)N(C1CCCCC1)C2=O,-5.08
25,Cc1ccc(S(=O)(=O)N2CCOCC2)cc1C(=O)N1c2ccccc2Sc2ccccc21,-1.84

row,Structure (SMILES),% Inhibition @ 10 uM [%]
1,CS(=O)(=O)c1ccc2nc(NC(=O)CN3CCC(Cc4ccccc4)CC3)sc2c1,-2.9
2,COc1ccc(NC(=O)c2cc(OC)cc(OC)c2)cc1,-10.1
3,CCOc1ccc(C(=O)Nc2ccc(F)cc2F)cc1,3.27
4,COCCCNC(=O)c1ccc2c(c1)ncn2-c1cc(Cl)ccc1OC,2.6
5,CCCCCCN1CC(=O)C(c2nc3ccccc3s2)=C1N,2.14
6,CCC(Oc1ccccc1)C(=O)NC1CCCC1 (stereo not shown),4.75
7,CCOc1cccc(-c2nc(O)c3c(n2)Oc2ccccc2C3)c1,5.48
8,COc1cccc(C(=O)Nc2sc3c(c2C#N)CCCC3)c1,-1.06
9,COc1ccc(C)cc1NC(=O)c1ccc(OC(F)F)cc1,-3.71
10,CC(C)(C)c1ccc(-c2nnc(SCC(=O)O)n2-c2ccccc2)cc1,4.42
11,CCOCCn1cnc2sc(C(=O)NCCCN(CC)CC)c(C)c2c1=O,-3.93
12,Cc1ccc(NC(=O)CN(CCc2ccccc2)S(C)(=O)=O)c(C)c1,3.04
13,O=C(Cn1cccc1C(=O)c1ccccc1)NCCc1ccc(Cl)cc1,-0.522
14,CN1CCN(c2ccc3nnc(CCC(=O)NCCc4c[nH]c5ccccc45)n3n2)CC1,-0.264
15,COc1ccccc1-c1cc(-c2ccccc2)nc(N)c1C#N,1.26
16,O=C(/C=C/c1ccc(-c2ccc(Cl)cc2)o1)c1ccco1,3.34
17,COc1ccc(N2C(=O)CC(N3CCN(c4ccccc4F)CC3)C2=O)c(OC)c1 (stereo not shown),-2.98
18,COc1ccc(C2=C/C(=C/c3ccccc3Cl)C(=O)O2)cc1,3.16
19,Cc1nn(CCC(=O)NCc2ccc3c(c2)OCO3)c(=O)c2nn(-c3ccccc3)c(C)c12,-6.73
20,COc1ccc(NC(=O)CN(c2ccc(Cl)cc2)S(C)(=O)=O)c(OC)c1,-0.297
21,CC(C)CNS(=O)(=O)c1ccc(OCC(=O)N2CCc3ccccc3C2)cc1,-0.0619
22,O=C(C1CCCN(c2ncnc3c2nc2n3CCCCC2)C1)N1CCN(c2ccccn2)CC1 (stereo not shown),-0.238
23,COc1cc(CNc2cccc(C(F)(F)F)c2)ccc1OCC(=O)NC(C)(C)C,1.92
24,O=C(NCc1ccccc1Cl)c1c(O)nc2ccccc2c1O,5.85
25,CCc1nnc(OCC(=O)NCc2cccc(OC)c2)c2cc3cc(F)ccc3n12,1.63

row,Structure (SMILES),% Inhibition @ 10 uM [%]
1,OCCN(Cc1ccccc1)Cc1cccc(Cl)c1,4.28
2,CCOC(=O)N1CCC(NC(=O)c2cnn3c(C)c(Cc4ccccc4Cl)c(C)nc23)CC1,-3.94
3,O=C1NC(=O)N(c2cccc(Cl)c2)C(=O)/C1=C\Nc1ccccc1O,0.792
4,O=C(NC1CCS(=O)(=O)C1)c1sc2ccccc2c1Cl (stereo not shown),-4.75
5,Cc1nc2ccccc2n1Cc1ccc(C(C)(C)C)cc1,-3.35
6,CCOc1ccccc1CN1CCN(c2ccc(C(C)=O)cc2)CC1,-0.849
7,Cc1[nH]c2ccccc2c1/C=C1/C(=N)N2C(=NC1=O)SN=C2S(=O)(=O)C(C)C,-1.58
8,Cc1nnc(N2CCCCC2)c2ccccc12,-2.97
9,Fc1ccc(-n2nnc(-c3ccccc3Br)n2)cc1,-3.49
10,CCOc1ccc2nc(SCC(=O)Nc3ccc(C#N)cc3)sc2c1,0.121
11,CC(C)(C)c1ccc(-c2nc(NC(=O)CSc3nnc4ccccn34)ns2)cc1,-4.78
12,O=C(NCc1ccccn1)c1sc2ccccc2c1Cl,-5.68
13,COc1cccc(CNCc2c(C(=O)O)n(Cc3ccccc3)c3cc(C)ccc23)c1OC,-0.118
14,CCCCCn1c(=O)c(C(=O)Nc2ccccc2C(N)=O)c(O)c2ccccc21,-4.23
15,CCOC(=O)N1CCN(C(=O)c2ccc(Br)cc2)CC1,3.72
16,COc1ccc(C)cc1-n1nnc(-c2nc(-c3ccccc3)no2)c1N,-4.46
17,O=C(Nc1ccccc1O)c1ccc(C(=O)Nc2ccccc2O)cc1,4.8
18,O=C(CN1CCN(c2ccccc2)CC1)Nc1cc(Cl)ccc1Cl,-2.03
19,O=c1c(Cl)c(N2CCC3(CC2)OCCO3)cnn1C12CC3CC(CC(C3)C1)C2,-5.27
20,CC1=C(C)CC(C(=O)NCc2ccc3c(c2)OCO3)C(C(=O)O)C1 (stereo not shown),-3.46
21,O=C(C1CCC(CNS(=O)(=O)c2cccc3cccnc23)CC1)N1CCCCCC1 (stereo not shown),-0.692
22,COc1ccc(C)cc1N(CC(=O)N(C)Cc1ccccc1)S(=O)(=O)c1ccccc1,4.56
23,CC1=C(C(=O)Nc2ccc(F)cc2)C(c2ccco2)C(C#N)=C(SCC(N)=O)N1 (stereo not shown),-4.68
24,O=C1c2ccccc2C(=O)C1(Nc1cccc([N+](=O)[O-])c1)c1ccccc1,4.82
25,CCOc1ccc(C2Nc3ccccc3N=C3CC(C)(C)CC(O)=C32)cc1 (stereo not shown),-1.85

row,Structure (SMILES),% Inhibition @ 10 uM [%]
1,Cc1nn2c(N)c(C#N)cnc2c1-c1ccccc1,3.19
2,CC1CCc2nn(CC(=O)NCCCN(Cc3ccccc3)C(C)C)cc2C1 (stereo not shown),1.8
3,CC(=O)c1ccc(NC(=O)c2cccc(Cl)c2)cc1,-0.771
4,CCCCc1c(C(=O)O)cc(C)cc1C(=O)O,3.16
5,Cc1cc2c(c(SCC(=O)O)n1)C(=O)OC2,2.57
6,Cc1ccc(S(=O)(=O)Cc2csc(N)n2)cc1,0.708
7,COc1ccc(NC(=O)CN2C(=O)S/C(=C/c3cc(C)n(-c4cccnc4)c3C)C2=O)cc1,17.9
8,O=C(O)CC(NC(=O)C(F)(F)F)c1ccccc1 (stereo not shown),-1.42
9,Cc1ccccc1Cn1cc(NC(=O)c2cc(-c3ccc4c(c3)OCO4)on2)cn1,-1.84
10,Cc1cc(=O)oc2c(C)c(O)c(C(=O)c3ccccc3)cc12,-4.62
11,CSc1cccc(NC(=O)CN(C)S(=O)(=O)c2c(C)cc(C)cc2C)c1,4.09
12,COc1ccc(CC(=O)Nc2cccc(F)c2)cc1,-7.5
13,Cc1cccc2nc(Cl)cc(Cl)c12,-2.4
14,Cc1nc(-c2ccc(NS(=O)(=O)c3ccc(C)c(C)c3)cc2)cs1,-4.68
15,O=C(COCc1cc(-c2cccs2)on1)Nc1c2ccccc2nc2ccccc12,-4.38
16,CCc1cc(C)nc2cc(-c3ccccc3)nn12,0.727
17,COc1ccc(-n2cccc2/C=C2\SC(=O)N(CC(=O)O)C2=O)cc1,5.75
18,Cc1ccccc1OCC(=O)NCCC1=CCCCC1,-4.02
19,CCOc1ccc(C(=O)C2=C(O)C(=O)N(Cc3cccnc3)C2c2ccc(O)c(OC)c2)cc1 (stereo not shown),-1.25
20,CC(C)(C)c1ccc(Oc2nc3ccccn3c(=O)c2/C=C(\C#N)C(=O)NC2CCCCC2)cc1,2.16
21,OC(/C=C/c1cccc(C(F)(F)F)c1)(Cn1ccnc1)c1cccnc1 (stereo not shown),3.54
22,O=C(Nc1ccccc1C(F)(F)F)NC1CCCCC1,24.3
23,CC(C)NC1=N/C(=C\c2ccccc2)C(=O)N1c1cccc(Cl)c1,0.231
24,CC(C)CCCNC=C1C(=O)NC(=O)NC1=O,12.8
25,CC(O)CN(CC(C)O)CC1CCCCC1 (stereo not shown),1.88
